# Results taken from the supplement of paper PMC3334620.
# Over roughly 33,000 sequences, “E-score (-0.5 to 0.5)” has its median near -0.054; the highest 2% begin near 0.35. This is one part of the list.
# Target: T1, Stb5 (UniProt P38699)
# T1 sequence: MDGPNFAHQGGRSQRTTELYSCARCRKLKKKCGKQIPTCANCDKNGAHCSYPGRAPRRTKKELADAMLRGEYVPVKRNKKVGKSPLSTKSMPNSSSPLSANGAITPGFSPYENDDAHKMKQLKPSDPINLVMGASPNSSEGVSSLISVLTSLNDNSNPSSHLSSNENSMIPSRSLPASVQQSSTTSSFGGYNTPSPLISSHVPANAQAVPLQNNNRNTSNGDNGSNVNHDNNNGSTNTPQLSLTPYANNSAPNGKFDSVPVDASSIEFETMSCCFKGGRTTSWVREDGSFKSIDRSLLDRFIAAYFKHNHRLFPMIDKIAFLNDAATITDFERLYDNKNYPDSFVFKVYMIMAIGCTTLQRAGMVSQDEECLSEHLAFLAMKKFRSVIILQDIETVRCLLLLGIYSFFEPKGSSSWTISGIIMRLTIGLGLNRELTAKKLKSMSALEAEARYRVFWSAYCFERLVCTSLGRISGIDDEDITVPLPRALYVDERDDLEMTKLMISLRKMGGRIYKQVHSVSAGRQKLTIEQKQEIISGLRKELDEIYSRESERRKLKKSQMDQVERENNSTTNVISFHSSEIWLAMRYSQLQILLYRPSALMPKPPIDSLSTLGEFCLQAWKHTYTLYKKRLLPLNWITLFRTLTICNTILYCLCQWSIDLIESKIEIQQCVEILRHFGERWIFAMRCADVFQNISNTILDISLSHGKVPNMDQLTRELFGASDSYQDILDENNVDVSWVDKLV
# Assay: PBM E-score (8-mer binding enrichment) (E-score (-0.5 to 0.5)); higher = stronger / more preferred TF binding; most listed sequences are background and not binding sites
# Conditions: protein concentration: 200 nM; construct: GST-full length
# How it was run: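 The E-score, a modified Wilcoxon-Mann-Whitney statistic, was computed by the Universal PBM Analysis Suite for every ungapped eight-base word pooled with its reverse complement. Scans behind it were normalised with masliner after bound GST-tagged yeast transcription factors were detected with fluorescent anti-GST. The proteins, at about 100-200 nM, had been applied to universal all-10-mer Agilent arrays made double-stranded by primer extension.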
row,Sequence,PBM E-score
1,CCTTGTGC,-0.164
2,CGCCGAGC,0.261
3,GAGGTTAC,0.0589
4,CGTAGACA,-0.0236
5,TGCCCCAA,-0.123
6,CCGTAAAG,0.149
7,AAATCATG,-0.141
8,CTGGTGGA,-0.253
9,GGCGCCCA,-0.113
10,AAAGGTAC,-0.00399
11,AATCGATG,-0.167
12,ATACTGAG,-0.127
13,CATGTCAC,0.0398
14,TCCCCCGA,0.263
15,CCAAAATA,0.104
16,ATGCGAAG,-0.246
17,ATCCGAGG,0.0334
18,AGGTTGCA,-0.201
19,CCAGGAGG,-0.238
20,CAGGCCAG,-0.182
21,CAGACAAG,-0.124
22,GATGGTTA,-0.0293
23,AAATCGAA,-0.244
24,ATTAGAAG,-0.143
25,CAACAGAA,-0.096

row,Sequence,PBM E-score
1,AGGGACCA,-0.272
2,ACTGTTAG,-0.316
3,AGTCTACC,-0.00578
4,GCTCCGCC,0.347
5,ACGTTCGG,0.104
6,GCACGAGC,-0.0836
7,GCATAGAC,0.13
8,AGAAACAT,-0.163
9,CACTAACC,-0.122
10,AGGACAGC,-0.101
11,GACACCCC,0.014
12,CGAAGTGA,-0.226
13,ACAAGTGA,-0.0645
14,ATGAGCAA,-0.0315
15,AAGACGAT,0.0211
16,GCGTACTA,-0.0242
17,AGCGCGCC,0.106
18,CCAACGGA,0.188
19,GCTACTCA,-0.153
20,ATACAGGA,-0.0578
21,AACGATCT,0.00102
22,ACCATCGG,0.165
23,AGCGCACT,0.145
24,ACCGCGTA,0.313
25,CTCAACTC,-0.154

row,Sequence,PBM E-score
1,AGAAACTC,0.0104
2,CCGGTCAC,0.227
3,CATCCAGG,-0.248
4,GGAACCAC,0.131
5,AAGCCGGC,0.225
6,AGCGTATA,-0.0484
7,ATATACTC,-0.0452
8,CACTATAA,-0.0214
9,ACGCAGCT,-0.161
10,AGCAATTG,0.0348
11,GCGGTCTA,0.23
12,CCAAGGTC,0.0782
13,AAATCCGA,0.332
14,CGTGGTAG,-0.145
15,GTGACCTA,-0.144
16,CGCTGATC,0.0743
17,CCCCATAC,-0.106
18,CCTTGTAC,-0.143
19,AGTTTTGG,-0.0302
20,AGCTCAGG,-0.185
21,ACGGACTA,0.288
22,AAACAGAC,-0.131
23,GGTGAATA,0.0403
24,CCGTCGCC,0.296
25,ATCTGATC,-0.162

row,Sequence,PBM E-score
1,CGCTTAAG,0.125
2,TAACCGAA,0.0166
3,AACGTTCA,-0.083
4,ATCAAAAT,-0.22
5,GGTAGGAA,-0.089
6,CATGCGTA,-0.141
7,AGGGCATC,-0.208
8,AATACTAA,-0.174
9,CCAAGAAA,-0.219
10,TGCACGCA,-0.0348
11,CTCGGGCA,0.0971
12,AGACCATA,-0.139
13,CTTAGTGA,-0.0497
14,ATGACTCC,0.145
15,CGAGCCGA,-0.145
16,GGTACCCA,-0.0736
17,AAGGGCCG,0.34
18,AACATGCC,0.122
19,ATTACCAA,-0.0501
20,CCGCTACA,0.262
21,GCAAGTCC,0.116
22,CGGTGGAC,0.149
23,CACTCGAG,-0.217
24,GATCGATC,-0.018
25,GATGTGAC,-0.0651

row,Sequence,PBM E-score
1,CCTCCTCC,-0.233
2,CCTGGAGA,-0.307
3,GACATGGA,-0.0821
4,CCCTGGGA,-0.0706
5,CAACTACA,-0.0881
6,ATGTACCA,-0.0814
7,GCCAGCCA,-0.0714
8,TAATGTAA,-0.00366
9,AGCAGCCA,-0.241
10,AGAAACCC,0.152
11,CCCTGAAG,-0.0687
12,GACTTGAA,-0.105
13,AGAAAGCC,0.115
14,CGTTCTAC,0.00478
15,ACCCGCGG,0.285
16,CTCTCCTC,-0.331
17,AGCCTCGA,-0.3
18,GCTTACAA,-0.0923
19,AAAGGGAT,-0.198
20,AGTCACCG,0.314
21,CAAGAAAA,-0.098
22,CAATGGAG,-0.291
23,TACCCGCA,0.16
24,ATTGGACA,-0.0996
25,CAATGATC,-0.281

row,Sequence,PBM E-score
1,ATAGTACG,-0.0437
2,CATCGATG,-0.254
3,AAGCCAAG,-0.246
4,CTGCGACA,0.166
5,GGGCTACC,-0.151
6,CACACGGA,0.233
7,AGCATGCA,-0.285
8,AGACACCT,-0.108
9,CACTAATA,-0.0623
10,CTCAAGAG,-0.295
11,AGCTCTAA,-0.234
12,CCTTACCG,0.05
13,ATATTGTA,-3e-05
14,ATGTAGAC,0.0624
15,GTATTGTA,0.103
16,TAGGATGA,-0.12
17,ATAGTTAG,0.115
18,GTTTAAGA,0.156
19,ACGCAGAA,-0.226
20,ACAATTGA,-0.171
21,ACCGCAGC,0.29
22,CTCTCAGC,-0.144
23,AGTTTGAA,-0.0739
24,CCCGCTCG,0.296
25,CCACGGGC,0.184

row,Sequence,PBM E-score
1,ATACCAGG,-0.215
2,AGATTAAC,-0.0201
3,CATGGGTA,-0.226
4,ATAATCAG,-0.0824
5,CGTATGAC,0.163
6,GTCTGGTA,-0.051
7,GAGGACCC,-0.123
8,GATGAAGC,-0.11
9,TCTACCCA,-0.177
10,GGCTCGAA,-0.104
11,AAGCCTGC,-0.204
12,CACGTAAG,-0.191
13,CCGCTGTC,0.269
14,AAATTTGC,-0.0894
15,AAATACTA,-0.191
16,ATTGACAA,-0.104
17,CCAGCAAA,-0.131
18,TATACCGA,0.26
19,CAATAGGG,-0.236
20,ACCTAGCG,0.0651
21,AGGGGCGG,0.36
22,ATAGCTGG,-0.0665
